Reference: the CheMixHub viscosity set

SMILES	viscosity (298.15 K, 101 kPa)	viscosity (298.15 K, 101.33 kPa)	viscosity (303.15 K, 100 kPa)	viscosity (303.15 K, 101 kPa)	viscosity (303.15 K, 101.33 kPa)	viscosity (308.15 K, 101 kPa)	viscosity (308.15 K, 101.33 kPa)	viscosity (313.15 K, 100 kPa)	viscosity (313.15 K, 101 kPa)	viscosity (313.15 K, 101.33 kPa)	viscosity (318.15 K, 101 kPa)	viscosity (323.15 K, 101.33 kPa)	viscosity (303 K, 101 kPa)	viscosity (323 K, 101 kPa)
CCCCCO	3.51 ± 0.3 mPa·s, 3.548 ± 0.031 mPa·s, 3.548 ± 0.092 mPa·s, 3.513 ± 0.091 mPa·s, 3.37 ± 0.01 mPa·s, 3.534 ± 0.043 mPa·s, 3.412 ± 0.032 mPa·s, 3.186 ± 0.15 mPa·s, 3.51 ± 0.21 mPa·s, 3.51 ± 0.026 mPa·s [several studies]	3.286 ± 0.077 mPa·s [study A] and 3.421 ± 0.038 mPa·s [study B] and 3.51 ± 0.16 mPa·s [study C] and 3.421 ± 0.15 mPa·s [study D] and 3.388 ± 0.04 mPa·s [study E]	3.115 ± 0.038 mPa·s [study A] and 2.954 ± 0.035 mPa·s [study B] and 3.048 ± 0.18 mPa·s [study C] and 3.053 ± 0.12 mPa·s [study D]	2.727 ± 0.27 mPa·s [study A] and 2.971 ± 0.028 mPa·s [study B] and 3.052 ± 0.016 mPa·s [study C] and 2.835 ± 0.023 mPa·s [study D]	2.833 ± 0.066 mPa·s, 2.832 ± 0.022 mPa·s, 3.086 ± 0.069 mPa·s, 2.832 ± 0.018 mPa·s, 2.973 ± 0.053 mPa·s, 2.973 ± 0.11 mPa·s, 2.832 ± 0.033 mPa·s, 2.787 ± 0.28 mPa·s, 3.055 ± 0.12 mPa·s [several studies]	2.518 ± 0.22 mPa·s [study A] and 2.724 ± 0.025 mPa·s [study B] and 2.694 ± 0.024 mPa·s [study C] and 2.544 ± 0.079 mPa·s [study D] and 2.599 ± 0.024 mPa·s [study E]	2.441 ± 0.058 mPa·s, 2.534 ± 0.022 mPa·s, 2.689 ± 0.061 mPa·s, 2.607 ± 0.03 mPa·s, 2.607 ± 0.12 mPa·s, 2.543 ± 0.03 mPa·s, 2.518 ± 0.11 mPa·s, 2.592 ± 0.046 mPa·s, 2.592 ± 0.098 mPa·s [several studies]	2.34 ± 0.029 mPa·s [study A] and 2.301 ± 0.028 mPa·s [study B] and 2.294 ± 0.093 mPa·s [study C] and 2.338 ± 0.14 mPa·s [study D] and 2.341 ± 0.096 mPa·s [study E]	2.34 ± 0.14 mPa·s [study A] and 2.29 ± 0.05 mPa·s [study B] and 2.368 ± 0.022 mPa·s [study C] and 2.299 ± 0.028 mPa·s [study D] and 2.283 ± 0.021 mPa·s [study E]	2.344 ± 0.096 mPa·s [study A] and 2.163 ± 0.22 mPa·s [study B] and 2.344 ± 0.015 mPa·s [study C] and 2.344 ± 0.018 mPa·s [study D] and 2.299 ± 0.26 mPa·s [study E] and 2.299 ± 0.033 mPa·s [study F] and 2.344 ± 0.027 mPa·s [study G]	2.074 ± 0.019 mPa·s [study A] and 2.085 ± 0.019 mPa·s [study B] and 2.085 ± 0.054 mPa·s [study C] and 2 ± 0.01 mPa·s [study D] and 2.014 ± 0.019 mPa·s [study E]	1.7 ± 0.17 mPa·s [study A] and 1.765 ± 0.042 mPa·s [study B] and 1.765 ± 0.016 mPa·s [study C] and 1.304 ± 0.18 mPa·s [study D]		
ClC(Cl)=C(Cl)Cl					0.798 ± 0.007 mPa·s [study A] and 0.7976 ± 0.0058 mPa·s [study B] and 0.796 ± 0.006 mPa·s [study C] and 0.796 ± 0.022 mPa·s [study D] and 0.74 ± 0.014 mPa·s [study E]									
O=[N+]([O-])c1ccccc1	1.832 ± 0.048 mPa·s, 1.834 ± 0.048 mPa·s, 1.804 ± 0.048 mPa·s, 1.82 ± 0.015 mPa·s, 1.825 ± 0.017 mPa·s, 1.817 ± 0.047 mPa·s, 1.528 ± 0.012 mPa·s, 1.86 ± 0.019 mPa·s, 1.834 ± 0.023 mPa·s, 1.834 ± 0.024 mPa·s [several studies]	1.822 ± 0.085 mPa·s, 1.763 ± 0.082 mPa·s, 1.827 ± 0.085 mPa·s [study A] and 1.873 ± 0.098 mPa·s, 1.873 ± 0.19 mPa·s [study B]		1.675 ± 0.015 mPa·s [study A] and 1.7 ± 0.05 mPa·s [study B] and 1.682 ± 0.014 mPa·s [study C] and 1.639 ± 0.043 mPa·s [study D] and 1.666 ± 0.043 mPa·s [study E] and 1.646 ± 0.015 mPa·s [study F]										
c1ccccc1		0.582 ± 0.005 mPa·s [study A] and 0.595 ± 0.003 mPa·s [study B] and 0.5996 ± 0.016 mPa·s [study C] and 0.6059 ± 0.016 mPa·s [study D] and 0.591 ± 0.0047 mPa·s [study E] and 0.6108 ± 0.0055 mPa·s [study F]		0.559 ± 0.011 mPa·s, 0.559 ± 0.006 mPa·s, 0.573 ± 0.004 mPa·s, 0.574 ± 0.007 mPa·s, 0.565 ± 0.011 mPa·s, 0.5698 ± 0.015 mPa·s, 0.573 ± 0.015 mPa·s, 0.5752 ± 0.0069 mPa·s, 0.57 ± 0.015 mPa·s, 0.572 ± 0.04 mPa·s [several studies]	0.57 ± 0.015 mPa·s [study A] and 0.565 ± 0.006 mPa·s [study B] and 0.63 ± 0.067 mPa·s [study C] and 0.63 ± 0.017 mPa·s [study D]	0.53 ± 0.01 mPa·s [study A] and 0.535 ± 0.011 mPa·s [study B] and 0.522 ± 0.006 mPa·s [study C] and 0.524 ± 0.015 mPa·s [study D] and 0.5292 ± 0.0047 mPa·s [study E] and 0.538 ± 0.0068 mPa·s [study F] and 0.537 ± 0.038 mPa·s [study G] and 0.554 ± 0.015 mPa·s [study H]	0.4801 ± 0.0045 mPa·s [study A] and 0.517 ± 0.003 mPa·s [study B] and 0.518 ± 0.0041 mPa·s [study C] and 0.5518 ± 0.0074 mPa·s [study D] and 0.604 ± 0.065 mPa·s [study E] and 0.604 ± 0.017 mPa·s [study F]		0.491 ± 0.009 mPa·s [study A] and 0.488 ± 0.005 mPa·s [study B] and 0.5022 ± 0.0066 mPa·s [study C] and 0.508 ± 0.011 mPa·s [study D] and 0.522 ± 0.014 mPa·s [study E]	0.5391 ± 0.015 mPa·s [study A] and 0.4922 ± 0.013 mPa·s [study B] and 0.598 ± 0.064 mPa·s [study C] and 0.598 ± 0.017 mPa·s [study D]	0.47 ± 0.01 mPa·s [study A] and 0.464 ± 0.01 mPa·s [study B] and 0.4603 ± 0.0048 mPa·s [study C] and 0.46 ± 0.005 mPa·s [study D]		0.5553 ± 0.0039 mPa·s, 0.5551 ± 0.0039 mPa·s, 0.5556 ± 0.0039 mPa·s, 0.5554 ± 0.0039 mPa·s	0.4354 ± 0.0032 mPa·s, 0.4343 ± 0.0032 mPa·s, 0.4346 ± 0.0032 mPa·s, 0.4344 ± 0.0032 mPa·s
CCCCCCC	0.3845 ± 0.015 mPa·s [study A] and 0.39 ± 0.004 mPa·s [study B] and 0.3942 ± 0.004 mPa·s [study C] and 0.3855 ± 0.01 mPa·s [study D]	0.4022 ± 0.0039 mPa·s [study A] and 0.387 ± 0.012 mPa·s [study B] and 0.3865 ± 0.0058 mPa·s, 0.3865 ± 0.011 mPa·s, 0.3866 ± 0.0058 mPa·s [study C] and 0.4 ± 0.006 mPa·s [study D]		0.369 ± 0.015 mPa·s [study A] and 0.364 ± 0.01 mPa·s [study B] and 0.3647 ± 0.0095 mPa·s [study C] and 0.393 ± 0.004 mPa·s [study D] and 0.388 ± 0.01 mPa·s [study E]		0.347 ± 0.02 mPa·s [study A] and 0.3582 ± 0.0047 mPa·s [study B] and 0.355 ± 0.004 mPa·s [study C] and 0.3603 ± 0.0076 mPa·s [study D]								
CN(C)C=O	0.7912 ± 0.021 mPa·s, 0.802 ± 0.008 mPa·s, 0.796 ± 0.026 mPa·s, 0.8136 ± 0.021 mPa·s, 0.802 ± 0.041 mPa·s, 0.8108 ± 0.0082 mPa·s, 0.8 ± 0.1 mPa·s, 0.8 ± 0.24 mPa·s, 0.87 ± 0.02 mPa·s, 0.8 ± 0.02 mPa·s, 0.8279 ± 0.0073 mPa·s, 0.827 ± 0.018 mPa·s [several studies]			0.758 ± 0.016 mPa·s, 0.83 ± 0.01 mPa·s, 0.7753 ± 0.0075 mPa·s, 0.744 ± 0.01 mPa·s, 0.78 ± 0.24 mPa·s, 0.82 ± 0.02 mPa·s, 0.7779 ± 0.007 mPa·s, 0.769 ± 0.016 mPa·s, 0.771 ± 0.036 mPa·s, 0.771 ± 0.029 mPa·s, 0.771 ± 0.023 mPa·s [several studies]		0.7166 ± 0.019 mPa·s, 0.7116 ± 0.005 mPa·s, 0.713 ± 0.037 mPa·s, 0.7329 ± 0.0071 mPa·s, 0.709 ± 0.028 mPa·s, 0.709 ± 0.008 mPa·s, 0.924 ± 0.2 mPa·s, 0.73 ± 0.23 mPa·s, 0.78 ± 0.02 mPa·s, 0.7322 ± 0.0068 mPa·s, 0.701 ± 0.015 mPa·s [several studies]					0.6674 ± 0.018 mPa·s, 0.64 ± 0.01 mPa·s, 0.6401 ± 0.0065 mPa·s, 0.638 ± 0.034 mPa·s, 0.653 ± 0.0064 mPa·s, 0.617 ± 0.025 mPa·s, 0.617 ± 0.007 mPa·s, 0.72 ± 0.02 mPa·s, 0.6518 ± 0.0064 mPa·s, 0.645 ± 0.014 mPa·s [several studies]			
CCCCCCCC	0.5186 ± 0.011 mPa·s [study A] and 0.53 ± 0.04 mPa·s [study B] and 0.517 ± 0.005 mPa·s [study C] and 0.517 ± 0.007 mPa·s [study D] and 0.529 ± 0.006 mPa·s [study E]	0.5194 ± 0.0048 mPa·s [study A] and 0.505 ± 0.004 mPa·s [study B] and 0.522 ± 0.007 mPa·s [study C] and 0.503 ± 0.008 mPa·s [study D]				0.4641 ± 0.01 mPa·s [study A] and 0.444 ± 0.013 mPa·s [study B] and 0.456 ± 0.008 mPa·s [study C] and 0.458 ± 0.004 mPa·s [study D] and 0.4684 ± 0.0081 mPa·s [study E]	0.453 ± 0.013 mPa·s [study A] and 0.4541 ± 0.013 mPa·s [study B] and 0.453 ± 0.011 mPa·s [study C] and 0.453 ± 0.004 mPa·s [study D] and 0.445 ± 0.007 mPa·s [study E]		0.424 ± 0.013 mPa·s [study A] and 0.429 ± 0.011 mPa·s [study B] and 0.4201 ± 0.0053 mPa·s [study C] and 0.447 ± 0.008 mPa·s [study D] and 0.456 ± 0.006 mPa·s [study E]	0.4201 ± 0.0053 mPa·s [study A] and 0.425 ± 0.012 mPa·s [study B] and 0.426 ± 0.012 mPa·s [study C] and 0.4295 ± 0.013 mPa·s [study D]	0.402 ± 0.013 mPa·s [study A] and 0.43 ± 0.04 mPa·s [study B] and 0.414 ± 0.006 mPa·s [study C] and 0.425 ± 0.0079 mPa·s [study D]			

± gives the uncertainty stated by the source. For part of its entries the source gives two or more results. They are shown here; other results are not. There may be further records. Values that stand side by side are repeats (runs, samples, wells, individuals or studies). Brackets tell where a record comes from. Letters count within one entry.
